The antibiotic and cytotoxicity screens of Wong et al. (2023)
The other results are listed elsewhere or left out.

Legend:
HSkMC = human skeletal muscle cells; test: cytotoxicity call (relative viability < 0.9); details: 10 µM
HepG2 = test: cytotoxicity call (relative viability < 0.9); details: 10 µM
S. aureus RN4220 = test: growth inhibition call (relative growth <= 0.2); details: 50 µM

C[C@@H]1CN([C@@H](C)CO)C(=O)c2cccc(NC(=O)Nc3ccc(F)cc3)c2O[C@@H]1CN(C)Cc1ccc(C(=O)Nc2ccccc2N)cc1
cytotoxicity call (HSkMC): inactive | cytotoxicity call (HepG2): active | growth inhibition call (S. aureus RN4220): inactive

Cc1csc(-c2nnc(Nc3ccc(Oc4ncccc4-c4ccnc(N)n4)cc3)c3ccccc23)c1
cytotoxicity call (HSkMC): active | cytotoxicity call (HepG2): active | growth inhibition call (S. aureus RN4220): inactive

C[C@H]1CCCCO[C@H](CN(C)S(=O)(=O)c2ccc(Cl)cc2)[C@@H](C)CN([C@@H](C)CO)C(=O)c2cc(NC(=O)Cc3ccccc3)ccc2O1
cytotoxicity call (HSkMC): inactive | cytotoxicity call (HepG2): active | growth inhibition call (S. aureus RN4220): inactive

C[C@@H]1CN([C@H](C)CO)C(=O)c2cc(C#CCN(C)C)cnc2O[C@@H]1CN(C)C(=O)c1ccc2c(c1)OCO2
cytotoxicity call (HSkMC): inactive | cytotoxicity call (HepG2): inactive | growth inhibition call (S. aureus RN4220): inactive

Nc1ncnc2c1ncn2[C@@H]1O[C@H](CSCC[C@H](N)C(=O)O)[C@@H](O)[C@H]1O
cytotoxicity call (HSkMC): inactive | cytotoxicity call (HepG2): inactive | growth inhibition call (S. aureus RN4220): inactive

C[C@@H]1CCCCO[C@@H](CN(C)Cc2ccc(C(=O)O)cc2)[C@H](C)CN([C@@H](C)CO)C(=O)c2cc(NC(=O)CCC(F)(F)F)ccc2O1
cytotoxicity call (HSkMC): inactive | cytotoxicity call (HepG2): inactive | growth inhibition call (S. aureus RN4220): inactive

COc1ccc(C(=O)Nc2ccc(CN3C(=O)[C@]4(O[C@H](CC(=O)N5CCC[C@H]5CO)[C@@H]([Si](C)(C)c5ccc(OC)cc5)[C@@H]4C)c4ccccc43)cc2)cc1
cytotoxicity call (HSkMC): inactive | cytotoxicity call (HepG2): inactive | growth inhibition call (S. aureus RN4220): inactive

Cc1noc(C)c1NC(=O)Nc1ccc2c(c1)C(=O)N([C@@H](C)CO)C[C@H](C)[C@H](CN(C)Cc1ccccc1)OCCCC[C@@H](C)O2
cytotoxicity call (HSkMC): inactive | cytotoxicity call (HepG2): inactive | growth inhibition call (S. aureus RN4220): inactive

O=C(C[C@H]1CC[C@H]2[C@@H](COC[C@H](O)CN2C(=O)Nc2ccc(Cl)c(Cl)c2)O1)NCc1ccc(Cl)c(Cl)c1
cytotoxicity call (HSkMC): inactive | cytotoxicity call (HepG2): inactive | growth inhibition call (S. aureus RN4220): inactive
